# The list shows a part of the results.
# B1: Surfactant Protein D (Human); Neck + Carbohydrate Recognition Domain (NCRD) (Homo sapiens) (protein)
# chain: MLLFLLSALVLLTQPLGYLEAEMKTYSHRTMPSACTLVMCSSVESGLPGRDRDGREGPRGEKGDPGLPGAAGQAGMPGQAGPVGPKGDNGSVGEPGPKGDTGPSGPPGPPGVPGPAGREGALGKQGNIGPQGKPGPKGEAGPKGEVGAPGMQGSAGARGLAGPKGERGVPGERGVPGNTGAAGSAGAMGPQGSPGARGPPGLKGDKGIPGDKGAKGESGLPDVASLRQQVEALQGQVQHLQAAFSQYKKVELFPNGQSVGEKIFKTAQFVKPFTEAQLLCTQAGGQLASPRSAAENAALQQLVVAKNEAAFLSMTDSKTEGKFTYPTGESLVYSNWAPGEPNDDGGSEDCVEIFTNGKWNDAACGEKRLVVCEF
# What was measured:
# Experiment in all cases: glycan array binding signal (z-score within array); higher = stronger binding
# Conditions in all cases: glycan notation: IUPAC condensed, linker removed; mutation: R343A
# Gal(b1-2)Gal = biological target: Gal(b1-2)Gal
# Method in brief: (§1)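 The binding signal is a Z-score computed within each array and averaged over linkers. Arrays of the same protein sequence at different concentrations or buffers were also averaged together. Data originate from 3228 arrays in the Consortium for Functional Glycomics database, kept only where the protein sequence was available.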
# Gal(b1-3)Gal = biological target: Gal(b1-3)Gal
# Method in brief: as §1
# Gal(b1-3)Gal(b1-4)GlcNAc = biological target: Gal(b1-3)Gal(b1-4)GlcNAc
# Method in brief: as §1
# Gal(b1-3)GalNAc = biological target: Gal(b1-3)GalNAc
# Method in brief: as §1
# [1] = biological target: Gal(b1-3)GalNAc(b1-3)Gal(a1-4)Gal(b1-4)Glc
# Method in brief: as §1
# [2] = biological target: Gal(b1-3)GalNAc(b1-4)Gal(b1-4)Glc
# Method in brief: as §1
# [3] = biological target: Gal(b1-3)GalNAc(b1-4)[Neu5Ac(a2-3)]Gal(b1-4)Glc
# Method in brief: as §1
# Gal(b1-3)GlcNAc = biological target: Gal(b1-3)GlcNAc
# Method in brief: as §1
# [4] = biological target: Gal(b1-3)GlcNAc(b1-2)Man(a1-3)[Gal(b1-3)GlcNAc(b1-2)Man(a1-6)]Man(b1-4)GlcNAc(b1-4)GlcNAc
# Method in brief: as §1
# [5] = biological target: Gal(b1-3)GlcNAc(b1-3)Gal(b1-3)GlcNAc
# Method in brief: as §1
# [6] = biological target: Gal(b1-3)GlcNAc(b1-3)Gal(b1-4)Glc
# Method in brief: as §1
# [7] = biological target: Gal(b1-3)GlcNAc(b1-3)Gal(b1-4)GlcNAc
# Method in brief: as §1
# [8] = biological target: Gal(b1-3)[Fuc(a1-4)]GlcNAc
# Method in brief: as §1
# [9] = biological target: Gal(b1-3)[Fuc(a1-4)]GlcNAc(b1-3)Gal(b1-3)[Fuc(a1-4)]GlcNAc
# Method in brief: as §1
# [10] = biological target: Gal(b1-3)[Fuc(a1-4)]GlcNAc(b1-3)Gal(b1-4)GlcNAc
# Method in brief: as §1
# [11] = biological target: Gal(b1-3)[Fuc(a1-4)]GlcNAc(b1-3)Gal(b1-4)[Fuc(a1-3)]GlcNAc
# Method in brief: as §1
# [12] = biological target: Gal(b1-3)[GlcNAc(b1-6)]GalNAc
# Method in brief: as §1
# [13] = biological target: Gal(b1-3)[Neu5Ac(a2-6)]GalNAc
# Method in brief: as §1
# [14] = biological target: Gal(b1-3)[Neu5Ac(a2-6)]GlcNAc(b1-6)Gal(b1-4)Glc
# Method in brief: as §1
# [15] = biological target: Gal(b1-3)[Neu5Ac(b2-6)]GalNAc
# Method in brief: as §1
# [16] = biological target: Gal(b1-4)GalNAc(a1-3)[Fuc(a1-2)]Gal(b1-4)GlcNAc
# Method in brief: as §1
# [17] = biological target: Gal(b1-4)GalNAc(b1-3)[Fuc(a1-2)]Gal(b1-4)GlcNAc
# Method in brief: as §1
# Gal(b1-4)Glc = biological target: Gal(b1-4)Glc
# Method in brief: as §1
# Gal(b1-4)Glc6S = biological target: Gal(b1-4)Glc6S
# Method in brief: as §1
# Gal(b1-4)GlcNAc = biological target: Gal(b1-4)GlcNAc
# Method in brief: as §1
# [18] = biological target: Gal(b1-4)GlcNAc(a1-6)Gal(b1-4)GlcNAc
# Method in brief: as §1
# [19] = biological target: Gal(b1-4)GlcNAc(b1-2)Man(a1-3)[Gal(b1-4)GlcNAc(b1-2)Man(a1-6)]Man(b1-4)GlcNAc(b1-4)GlcNAc
# Method in brief: as §1
# [20] = biological target: Gal(b1-4)GlcNAc(b1-3)Gal(b1-3)GlcNAc
# Method in brief: as §1
# [21] = biological target: Gal(b1-4)GlcNAc(b1-3)Gal(b1-4)Glc
# Method in brief: as §1
# [22] = biological target: Gal(b1-4)GlcNAc(b1-3)Gal(b1-4)GlcNAc
# Method in brief: as §1
# [23] = biological target: Gal(b1-4)GlcNAc(b1-3)Gal(b1-4)GlcNAc(b1-3)Gal(b1-4)GlcNAc
# Method in brief: as §1
# [24] = biological target: Gal(b1-4)GlcNAc(b1-3)Gal(b1-4)[Fuc(a1-3)]GlcNAc(b1-3)Gal(b1-4)[Fuc(a1-3)]GlcNAc
# Method in brief: as §1
# [25] = biological target: Gal(b1-4)GlcNAc(b1-3)GalNAc
# Method in brief: as §1
# [26] = biological target: Gal(b1-4)GlcNAc(b1-3)[Gal(b1-4)GlcNAc(b1-6)]Gal(b1-4)GlcNAc
# Method in brief: as §1
# [27] = biological target: Gal(b1-4)GlcNAc(b1-3)[GlcNAc(b1-6)]Gal(b1-4)GlcNAc
# Method in brief: as §1
# [28] = biological target: Gal(b1-4)GlcNAc(b1-6)Gal(b1-4)GlcNAc
# Method in brief: as §1
# [29] = biological target: Gal(b1-4)GlcNAc(b1-6)Gal(b1-4)GlcNAc(b1-6)GalNAc
# Method in brief: as §1
binder,measurement,setting,value
B1,glycan array binding signal (z-score),Gal(b1-2)Gal,-0.42
same,glycan array binding signal (z-score),Gal(b1-3)Gal,-0.274
same,glycan array binding signal (z-score),Gal(b1-3)Gal(b1-4)GlcNAc,-0.215
same,glycan array binding signal (z-score),Gal(b1-3)GalNAc,-0.284
same,glycan array binding signal (z-score),[1],-0.054
same,glycan array binding signal (z-score),[2],-0.358
same,glycan array binding signal (z-score),[3],0.035
same,glycan array binding signal (z-score),Gal(b1-3)GlcNAc,-0.239
same,glycan array binding signal (z-score),[4],-0.284
same,glycan array binding signal (z-score),[5],-0.27
same,glycan array binding signal (z-score),[6],-0.279
same,glycan array binding signal (z-score),[7],-0.158
same,glycan array binding signal (z-score),[8],-0.199
same,glycan array binding signal (z-score),[9],-0.22
same,glycan array binding signal (z-score),[10],-0.177
same,glycan array binding signal (z-score),[11],-0.08
same,glycan array binding signal (z-score),[12],-0.123
same,glycan array binding signal (z-score),[13],-0.342
same,glycan array binding signal (z-score),[14],-0.335
same,glycan array binding signal (z-score),[15],-0.326
same,glycan array binding signal (z-score),[16],-0.214
same,glycan array binding signal (z-score),[17],-0.294
same,glycan array binding signal (z-score),Gal(b1-4)Glc,-0.341
same,glycan array binding signal (z-score),Gal(b1-4)Glc6S,-0.03
same,glycan array binding signal (z-score),Gal(b1-4)GlcNAc,0.113
same,glycan array binding signal (z-score),[18],-0.353
same,glycan array binding signal (z-score),[19],-0.302
same,glycan array binding signal (z-score),[20],-0.322
same,glycan array binding signal (z-score),[21],0.051
same,glycan array binding signal (z-score),[22],0.369
same,glycan array binding signal (z-score),[23],-0.229
same,glycan array binding signal (z-score),[24],-0.121
same,glycan array binding signal (z-score),[25],-0.095
same,glycan array binding signal (z-score),[26],-0.254
same,glycan array binding signal (z-score),[27],-0.254
same,glycan array binding signal (z-score),[28],-0.164
same,glycan array binding signal (z-score),[29],-0.275

# From the supplement of paper PMC8728848
